Experimental data taken from PubChem BioAssay (NCI).
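How tested: cells in 96-well plates exposed to compound for 48 hours at five concentrations. Here, GI50 denotes the concentration required for 50% inhibition of growth. TGI denotes the concentration required for complete inhibition of growth.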

Tested on: NCI-H322M lung
Assay: NCI-60 cell line screen, 48 h

Row | SMILES | GI50 [µM] | TGI [µM]
1 | CC1=C(C(=O)Nc2ccccc2)C(c2cccc3ccccc23)n2c(nc3ccccc32)N1 (centres undefined) | > 100 | > 100
2 | O=C(O)c1ccc(-c2ccc(/C=N/NC(=O)c3[nH]c4ccc(Br)cc4c3-c3ccccc3)s2)cc1 | 17.5 | 50.4
